From PubChem BioAssay AID686978 (National Center for Advancing Translational Sciences (NCATS), 2013)
Out of some 420,000 compounds screened, about 64,000 (15%) were called active. The shares of active, inactive and inconclusive entries below differ from those in the screen. Calls come from the whole dose curve; as a rule, active = well fitted inhibition curve with a large enough effect; inconclusive = small, poorly fitted or top-dose-only effect; inactive = flat fitted curve, though single readings scatter. No potency is given beside an inconclusive call; the fits are too rough.
% is set by controls: 0 for no effect and ±100 for the full control effect; potency is the fitted concentration of half-maximal effect; tags give direction and shape of the fitted curve.

Test: qHTS for Inhibitors of human tyrosyl-DNA phosphodiesterase 1 (TDP1): qHTS in cells in absence of CPT; note: nearly all actives have a fitted effect of over 55% in size
Details: DT40 Tdp1-/- hTDP1 cells, no CPT, ATP luminescence, 48 h; activity change, negative = growth inhibition: at 46.2 µM (top of the series)
Outline: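 Growth of hTDP1-complemented DT40 Tdp1-knockout cells is measured by ATP luminescence after at least 48 hr compound exposure at 37 °C, with DMSO substituting for the 20 nM CPT used in the parallel screen.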
With CCCNC(=O)COc1ccc(-c2nn(C)c(=O)c3ccccc23)cc1 the Potency was active: 20.6 µM. With Cc1ccc(CNC(=O)C(C)n2nc(C)c3sc4ccccc4c3c2=O)cc1 (stereo not given) the Potency was inconclusive [inhibitor, full curve, poor fit]. In the case of CNCCNS(=O)(=O)c1cccc2cnccc12, the Potency is reported as inconclusive [inhibitor, single point]. In the case of C=CCN1C2CCCC1CC(NC(=S)Nc1cccc(OC)c1)C2 (stereo not given), the activity change, negative = growth inhibition is reported as inconclusive: -32.8% [inhibitor]. For CCC(CCC(=O)NNC(=O)Cc1ccc([N+](=O)[O-])cc1)C(=O)O (stereo not given), the “activity change, negative = growth inhibition” value was inactive: 6.61%. With CCCCC[C@@H](/C=C/C1C(=O)C=C[C@H]1C/C=C\CCCC(=O)OC)OC(C)=O (stereo not given in full) the Potency was active: 6.51 µM. With Cc1cc(C)c(NC(=O)Cn2c(=O)n(Cc3ccc(C(=O)NCc4ccc5c(c4)OCO5)cc3)c(=O)c3ccccc32)c(C)c1 the Potency was active: 7.31 µM. With COC(=O)c1ccc(Cn2c(C)c(C(=O)NCc3ccc(C#N)cc3)sc2=O)o1 the “activity change, negative = growth inhibition” value was inactive: -8.61%. In the case of O=S(c1ccccc1)c1ccccc1, the “activity change, negative = growth inhibition” value is reported as inactive: -1.04%. For COc1ccccc1S(=O)(=O)N(C)C[C@@H]1OCc2cnnn2CCCC(=O)N([C@@H](C)CO)C[C@H]1C, the “activity change, negative = growth inhibition” value was inactive: 2.92%. In the case of Cc1cc(C)nc(SCc2nc3nc(C)cc(C)n3c2Br)n1, the “activity change, negative = growth inhibition” value is reported as inactive: 5.78%. With CCOC(=O)C1CCN(C(=O)Nc2ccc(C)c(Cl)c2)CC1 the “activity change, negative = growth inhibition” value was inactive: -18.4%. In the case of CC(=O)c1c(C)oc2c1cc(NS(=O)(=O)c1ccc(C(C)(C)C)cc1)c1ccccc12, the Potency is reported as active: 20.6 µM. For COc1ccc(NC(=O)Cn2c(=O)c3ccccc3n3nncc23)c(OC)c1, the Potency was inconclusive [inhibitor, single point]. In the case of Cc1cc(C(=O)OCC(=O)c2cccs2)ccc1[N+](=O)[O-], the “activity change, negative = growth inhibition” value is reported as inactive: -14%. For CCOC(=O)C1=CN(Cc2ccc(OC)cc2)C=C(C(=O)OCC)C1c1cccs1, the Potency was inconclusive [inhibitor, single point]. With Cc1ccc(/C=N/N2CCN(c3ccc(Cl)cc3)CC2)o1 the Potency was inconclusive [inhibitor, single point]. In the case of COc1ccc(NC(=O)c2cc(S(=O)(=O)N3CCCC3)ccc2OC)cc1, the Potency is reported as “inactive”. With COC(=O)c1ccccc1NC(=O)CN1C(=O)COc2ccc(Cl)cc21 the Potency was inconclusive [inhibitor, single point]. With COC(=O)c1cccc(NC(=O)c2cccnc2)c1 the “activity change, negative = growth inhibition” value was inactive: -19.5%. With CCc1occc(=O)c1Oc1cc(NN2CCCCC2)c([N+](=O)[O-])cc1[N+](=O)[O-] the Potency was inconclusive [inhibitor, single point]. In the case of CC(=O)N(C(C)=O)c1ncc2c([nH]c3ccccc32)c1C#N, the Potency is reported as inconclusive [inhibitor, single point]. With CCOc1ccc(S(=O)(=O)N(CC(=O)NCc2cccnc2)c2ccc(C)cc2)cc1 the Potency was inconclusive [inhibitor, single point]. For c1ccc2c(Nc3ccncc3)nc(-c3ccoc3)nc2c1, the Potency was active: 20.6 µM. In the case of CCOC(=O)c1sc(-c2ccc(Cl)cc2)nc1O, the “activity change, negative = growth inhibition” value is reported as inactive: 0.917%. In the case of CC1CCCCN1C(=O)C1CCCCN1S(=O)(=O)c1cccc([N+](=O)[O-])c1 (stereo not given), the “activity change, negative = growth inhibition” value is reported as inactive: -29.2%. With CC1CC(C)CN(CC(=O)N2CCc3[nH]c4ccccc4c3C2)C1 (stereo not given) the Potency was inconclusive [inhibitor, full curve, poor fit]. With Cc1cc(C(=O)OCC(=O)NCc2ccccc2)c2ccccc2n1 the Potency was inconclusive [inhibitor, single point]. For Clc1ccc2c(c1)-c1nnc(Br)n1-c1ccccc1S2, the Potency was inconclusive [inhibitor, single point]. With CCN1CCN(CCc2nc3cc(NC(=O)COc4ccc(Cl)cc4)ccc3n2C)CC1 the Potency was inconclusive [inhibitor, single point]. With Clc1ncnc2c1oc1ccccc12 the Potency was inconclusive [inhibitor, single point]. With Cc1cc(C(=O)CN2CCN(CC(=O)Nc3cccc(F)c3)CC2)c(C)n1C1CC1 the “activity change, negative = growth inhibition” value was inactive: 4.43%. In the case of Cc1ccc(OCC(=O)Nc2cccc3nsnc23)c(C)c1, the activity change, negative = growth inhibition is reported as inconclusive: -34.3% [inhibitor]. For Cc1ccc(S(=O)(=O)c2c(O)c3ccc(C(=O)O)cc3[nH]c2=O)cc1, the “activity change, negative = growth inhibition” value was inactive: 21.2%. In the case of O=C(NC(=O)c1ccccc1)Nc1cccc(S(=O)(=O)N2CCCCC2)c1, the “activity change, negative = growth inhibition” value is reported as inactive: -3.52%. With COc1ccccc1CC(=O)OC(C)C(=O)Nc1ccc(S(=O)(=O)N2CCCCC2)cc1 (stereo not given) the Potency was inconclusive [inhibitor, single point]. For CSc1ncccc1C(=O)Nc1nc2ccc(Oc3ccccc3)cc2s1, the Potency was inconclusive [inhibitor, single point]. For COc1ccc(C(=O)Nc2nnc(Cc3ccc(OC)c(OC)c3)s2)cc1, the “activity change, negative = growth inhibition” value was inactive: -18.8%. In the case of O=C(CNc1cccc2ccccc12)N/N=C/c1ccc(OC(=O)/C=C/c2ccco2)cc1, the “activity change, negative = growth inhibition” value is reported as inactive: -27.9%. With CCC(=O)N1CCC1(C)C(=O)Nc1cccc2c1CCCC2 (stereo not given) the “activity change, negative = growth inhibition” value was inactive: -8.96%. With Nc1c(S(=O)(=O)c2ccccc2)c2nc3ccccc3nc2n1/N=C/c1ccco1 the Potency was inconclusive [inhibitor, partial curve]. With O=C(Nc1cccc(-c2nnc(-c3ccco3)o2)c1)c1ccccc1 the Potency was inconclusive [inhibitor, single point]. For O=C(Nc1ccccc1N1CCOCC1)c1cc(Cl)c2c(c1)OCO2, the Potency was inconclusive [inhibitor, single point]. In the case of CC1CCCN(c2nc3c(c(=O)n(C)c(=O)n3C)n2Cc2ccccc2)C1 (stereo not given), the Potency is reported as active: 23.1 µM. For Cc1ccc(NC(=O)COC(=O)CSC(=S)N2CCOCC2)cc1C, the “activity change, negative = growth inhibition” value was inactive: -5.77%. For COc1cccc(C(=O)Nc2nnc(S(=O)(=O)N(C)Cc3ccccc3)s2)c1, the “activity change, negative = growth inhibition” value was inactive: -17.8%. In the case of COc1cc(NC(=O)COC(=O)c2n[nH]c3ccccc23)c(C)cc1[N+](=O)[O-], the Potency is reported as inconclusive [inhibitor, partial curve]. In the case of CCOc1ccccc1NC(=O)c1ccc(F)c(S(=O)(=O)N2CCN(c3ccc(F)cc3)CC2)c1, the Potency is reported as inconclusive [inhibitor, full curve]. With CCN(CC)c1ccc(/C=N/NC(=O)c2cccc(S(=O)(=O)N3CCOCC3)c2)c(O)c1 the Potency was active: 5.8 µM. In the case of O=C(Oc1ccccc1)c1ccc2nccnc2c1, the “activity change, negative = growth inhibition” value is reported as inactive: 2.88%. In the case of O=S(=O)(Nc1ccc(-n2cccc2)cc1)c1ccc(F)cc1, the Potency is reported as inconclusive [inhibitor, single point]. In the case of Cn1cc(C(=O)C(=O)N2CCCC2)c2ccccc21, the “activity change, negative = growth inhibition” value is reported as inactive: -12.8%. For Cc1cc(OCCn2ccnc2)ccc1C(C)C, the Potency was inconclusive [inhibitor, partial curve]. For Nc1nc(Nc2ccccc2)nc(NCc2ccco2)c1[N+](=O)[O-], the Potency was inconclusive [inhibitor, single point]. With O=C(c1ccco1)N(Cc1ccccc1)c1cccc([N+](=O)[O-])c1 the “activity change, negative = growth inhibition” value was inactive: -17.6%. In the case of CCn1c(O)c(C=NC2CCCC(C)C2C)sc1=S (stereo not given), the Potency is reported as inconclusive [inhibitor, single point]. In the case of CCC(C(=O)N1CCN(c2ncccn2)CC1)c1ccccc1 (stereo not given), the Potency is reported as inconclusive [inhibitor, single point]. In the case of CC1(C)Cc2c(sc3ncn4nc(-c5ccco5)nc4c23)CO1, the Potency is reported as inconclusive [inhibitor, partial curve]. In the case of COc1cccc(CC(=O)N(CCC2=CCCCC2)c2c(N)n(Cc3ccccc3)c(=O)[nH]c2=O)c1, the Potency is reported as inconclusive [inhibitor, single point]. In the case of O=C1COc2ccc(C(=O)CSc3nnc(Cc4cccs4)n3-c3ccccc3)cc2N1, the Potency is reported as active: 9.2 µM. For O=C(NCCN1CCOCC1)NC1(C(F)(F)F)Oc2ccc(Cl)cc2O1 (stereo not given), the Potency was active: 13 µM. In the case of CCOc1ccc(C(=O)NCC(c2cccs2)S(=O)(=O)c2ccccc2)cc1 (stereo not given), the Potency is reported as inconclusive [inhibitor, single point]. With Cc1cccc(C)c1NC(=O)c1ccccc1C(=O)O the Potency was inconclusive [inhibitor, single point]. In the case of Cc1ccc2c(Cl)c(C(=O)NCC3CCCO3)sc2c1 (stereo not given), the activity change, negative = growth inhibition is reported as inconclusive: -5.91% [inhibitor]. For COc1cc(C2C(C#N)=C(N)Oc3c2ccc2ccccc32)ccc1OCC(=O)Nc1cccc(C)c1 (stereo not given), the Potency was active: 16.4 µM. For CC(=O)Nc1cccc(-c2ccnc3c2CC(C)(C(=O)Nc2ccc(C(C)C)cc2)O3)c1 (stereo not given), the Potency was inconclusive [inhibitor, single point]. In the case of COc1cc(NC(=O)CSc2nc3ccccc3n2-c2ccccc2)c(C)cc1[N+](=O)[O-], the Potency is reported as inconclusive [inhibitor, single point]. In the case of CCc1nc2c(OCc3ccc(Cl)cc3Cl)cccn2c1N(C)C(C)=O, the Potency is reported as inconclusive [inhibitor, single point]. For O=C(Cc1cccs1)Nc1nc(-c2ccccc2)cs1, the Potency was active: 8.2 µM. In the case of CCN(CC)S(=O)(=O)c1ccc2c(c1)[nH]c(=S)n2CC, the “activity change, negative = growth inhibition” value is reported as inactive: -27.8%. For CCOc1ccccc1NC(=O)COC(=O)c1c(CC)noc1C, the “activity change, negative = growth inhibition” value was inactive: -22.4%. With O=C(c1cc(C2CC2)nn1-c1ccccc1)N1CCN(Cc2c(F)cccc2Cl)CC1 the Potency was inconclusive [inhibitor, single point]. In the case of CCOc1ccc(-n2ccnc2SCC(=O)Nc2nnc(CC)s2)cc1, the Potency is reported as inconclusive [inhibitor, single point]. For CCC(=O)c1ccc(OCC(=O)Nc2nc(-c3cccnc3)cs2)cc1, the Potency was inconclusive [inhibitor, single point]. In the case of CCc1nnc(NC(=O)C=C(C)C)s1, the Potency is reported as inconclusive [inhibitor, partial curve].
